Test results reported in the supplement of paper PMC4967469.
IC50 is the fitted dose that halves viability relative to control wells, and lower means more sensitive; a fit beyond the top or the lowest dose is shown as a bound at that dose. AUC is the area under the same curve over the 256-fold range up to the top dose, as a fraction; it is 1 without any effect and falls as sensitivity rises. For some of these results: Where the top dose is marked as inferred, it was derived from the fitted curves, not read from the paper. For some of these results: Where an entry number is given, a second screen of the drug exists; the two often differ.

Key:
Assay in all cases: Viability of human cancer cell lines after 72 h of drug (GDSC screen)
MPS-1-IN-1 = compound: COc1cc(N2CCC(O)CC2)ccc1Nc1cc(Nc2ccccc2S(=O)(=O)C(C)C)c2cc[nH]c2n1 [MPS-1-IN-1]; settings: top dose 20 µM; top dose inferred
Protocol: (§1)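 Human cancer cell lines in 384-well plates, medium with 10% serum, drug for 72 h over a 256-fold dose range (nine 2-fold or five 4-fold steps up to the top dose). Adherent lines were fixed and stained with the nucleic acid dye Syto60, suspension lines read with resazurin; signal relative to control wells, capped at 0 and 100%. One two-parameter sigmoid per drug and line, fitted in a mixed model over all curves with the slope shared within a line.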

KU-55933 = compound: O=c1cc(-c2cccc3c2Sc2ccccc2S3)oc(N2CCOCC2)c1 [KU-55933]; settings: top dose 10 µM
Protocol: as §1

CP466722 = compound: COc1cc2ncnc(-n3nc(-c4ccccn4)nc3N)c2cc1OC [CP466722]; settings: top dose 16 µM; top dose inferred
Protocol: as §1

Cytarabine = compound: Nc1ccn([C@@H]2O[C@H](CO)[C@@H](O)[C@@H]2O)c(=O)n1 [Cytarabine]; settings: top dose 2 µM
Protocol: as §1

GSK269962A = compound: CCn1c(-c2nonc2N)nc2cnc(Oc3cccc(NC(=O)c4ccc(OCCN5CCOCC5)cc4)c3)cc21 [GSK269962A]; settings: top dose inferred
Protocol: as §1

QL-X-138 = compound: C=CC(=O)Nc1cc(-n2c(=O)ccc3cnc4ccc(-c5cn[nH]c5)cc4c32)ccc1C [QL-X-138]; settings: top dose 10.24 µM; top dose inferred
Protocol: as §1

Zibotentan = compound: COc1nc(C)cnc1NS(=O)(=O)c1cccnc1-c1ccc(-c2nnco2)cc1 [Zibotentan]; settings: top dose 20 µM; top dose inferred
Protocol: as §1

ABT-888 = compound: C[C@]1(c2nc3c(C(N)=O)cccc3[nH]2)CCCN1 [ABT-888]; settings: top dose 5 µM; top dose inferred
Protocol: as §1

CHIR-99021 = compound: Cc1cnc(-c2cnc(NCCNc3ccc(C#N)cn3)nc2-c2ccc(Cl)cc2Cl)[nH]1 [CHIR-99021]
Protocol: as §1

(5Z)-7-Oxozeaenol = compound: COc1cc(O)c2c(c1)/C=C/C[C@H](O)[C@H](O)C(=O)/C=C\C[C@H](C)OC2=O [(5Z)-7-Oxozeaenol]; settings: top dose 10 µM; top dose inferred
Protocol: as §1

CMK = compound: Cc1ccc(-c2c(C(=O)CCl)n(CCCO)c3ncnc(N)c23)cc1 [CMK]; settings: top dose 4 µM; top dose inferred
Protocol: as §1

ABT-869 = compound: Cc1ccc(F)c(NC(=O)Nc2ccc(-c3cccc4[nH]nc(N)c34)cc2)c1 [ABT-869]; settings: top dose 1.024 µM; top dose inferred
Protocol: as §1

Thapsigargin = compound: C/C=C(/C)C(=O)O[C@H]1C(C)=C2[C@H]([C@@H]1OC(=O)CCCCCCC)[C@@](C)(OC(C)=O)C[C@H](OC(=O)CCC)[C@@]1(O)[C@H]2OC(=O)[C@@]1(C)O [Thapsigargin]; settings: top dose 0.512 µM; top dose inferred
Protocol: as §1

[1] = top dose 2.5 µM, screen: GDSC drug entry 127
[2] = top dose 5 µM, screen: GDSC drug entry 1192
[3] = top dose 2.56 µM, screen: GDSC drug entry 154
[4] = top dose 10 µM, screen: GDSC drug entry 1241, top dose inferred

Row | Cell Line | AUC (MPS-1-IN-1) | IC50 (MPS-1-IN-1) [µM] | AUC (KU-55933) | IC50 (KU-55933) [µM] | AUC (CP466722) | IC50 (CP466722) [µM] | AUC (Cytarabine) | IC50 (Cytarabine) [µM] | AUC (GSK269962A; [1]) | IC50 (GSK269962A; [1]) [µM] | AUC (GSK269962A; [2]) | IC50 (GSK269962A; [2]) [µM] | AUC (QL-X-138) | IC50 (QL-X-138) [µM] | AUC (Zibotentan) | IC50 (Zibotentan) [µM] | AUC (ABT-888) | IC50 (ABT-888) [µM] | AUC (CHIR-99021; [3]) | IC50 (CHIR-99021; [3]) [µM] | AUC (CHIR-99021; [4]) | IC50 (CHIR-99021; [4]) [µM] | AUC ((5Z)-7-Oxozeaenol) | IC50 ((5Z)-7-Oxozeaenol) [µM] | AUC (CMK) | IC50 (CMK) [µM] | AUC (ABT-869) | IC50 (ABT-869) [µM] | AUC (Thapsigargin) | IC50 (Thapsigargin) [µM]
1 | TE-1 (oesophagus, adherent) | 0.979 | > 20 | 0.973 | > 10 | 0.89 | > 16 | 0.974 | > 2 | 0.971 | > 2.5 | 0.911 | > 5 | 0.884 | > 10.2 | 0.982 | > 20 | 0.982 | > 5 | 0.981 | > 2.56 | 0.934 | > 10 | 0.565 | 0.988 | 0.917 | > 4 | 0.978 | > 1.02 | 0.36 | 0.0118
2 | TE-5 (oesophagus, adherent) | 0.973 | > 20 | 0.968 | > 10 | 0.867 | > 16 | 0.67 | 0.401 | 0.976 | > 2.5 | 0.956 | > 5 | 0.778 | 4.8 | 0.984 | > 20 | 0.978 | > 5 | 0.979 | > 2.56 | 0.973 | > 10 | 0.576 | 1.04 | 0.966 | > 4 | 0.983 | > 1.02 | 0.779 | 0.243
3 | TE-6 (oesophagus, adherent) | 0.859 | > 20 | 0.972 | > 10 | 0.821 | 11.4 | 0.873 | > 2 | 0.973 | > 2.5 | 0.954 | > 5 | 0.856 | > 10.2 | 0.982 | > 20 | 0.986 | > 5 | 0.986 | > 2.56 | 0.957 | > 10 | 0.985 | > 10 | 0.985 | > 4 | 0.979 | > 1.02 | 0.226 | 0.00434
4 | TE-8 (oesophagus, adherent) | 0.881 | > 20 | 0.954 | > 10 | 0.899 | > 16 | 0.593 | 0.23 | 0.948 | > 2.5 | 0.83 | 3.45 | 0.9 | > 10.2 | 0.985 | > 20 | 0.985 | > 5 | 0.956 | > 2.56 | 0.886 | > 10 | 0.43 | 0.396 | 0.7 | 0.954 | 0.979 | > 1.02 | 0.181 | 0.00323
5 | TE-9 (oesophagus, adherent) | 0.987 | > 20 | 0.974 | > 10 | 0.96 | > 16 | 0.804 | 1.05 | 0.96 | > 2.5 | 0.929 | > 5 | 0.97 | > 10.2 | 0.987 | > 20 | 0.987 | > 5 | 0.978 | > 2.56 | 0.981 | > 10 | 0.769 | 3.92 | 0.947 | > 4 | 0.987 | > 1.02 | 0.367 | 0.0135
6 | TE-11 (oesophagus, adherent) | 0.935 | > 20 | 0.951 | > 10 | 0.946 | > 16 | 0.966 | > 2 |  |  | 0.863 | 3.7 | 0.972 | > 10.2 | 0.99 | > 20 | 0.978 | > 5 | 0.986 | > 2.56 | 0.955 | > 10 | 0.858 | 7.06 | 0.977 | > 4 | 0.986 | > 1.02 | 0.224 | 0.00549
7 | TE-12 (oesophagus, suspension) | 0.866 | > 20 | 0.951 | > 10 | 0.67 | 3.32 | 0.956 | > 2 | 0.95 | > 2.5 | 0.942 | > 5 | 0.727 | 3.31 | 0.982 | > 20 | 0.981 | > 5 | 0.968 | > 2.56 | 0.971 | > 10 | 0.735 | 3.46 | 0.794 | 2.3 | 0.968 | > 1.02 | 0.301 | 0.00774
8 | TE-15 (oesophagus, suspension) | 0.718 | 5.68 | 0.922 | > 10 | 0.739 | 5.36 | 0.897 | > 2 | 0.968 | > 2.5 | 0.976 | > 5 | 0.613 | 1.36 | 0.985 | > 20 | 0.985 | > 5 | 0.922 | > 2.56 | 0.981 | > 10 | 0.91 | > 10 | 0.808 | 2.4 | 0.979 | > 1.02 | 0.256 | 0.00575
9 | TGBC1TKB (biliary tract, adherent) | 0.975 | > 20 | 0.961 | > 10 | 0.983 | > 16 | 0.899 | > 2 | 0.988 | > 2.5 | 0.937 | > 5 | 0.926 | > 10.2 | 0.989 | > 20 | 0.989 | > 5 | 0.987 | > 2.56 | 0.988 | > 10 | 0.829 | 6.18 | 0.835 | 2.6 | 0.987 | > 1.02 | 0.195 | 0.00399
